Measurements published in ChEMBL document CHEMBL4888484, “Replenishing the malaria drug discovery pipeline: Screening and hit evaluation of the MMV Hit Generation Library 1 (HGL1) against asexual blood stage Plasmodium falciparum ,using a nano luciferase reporter read-out” (2022).
Among all 4,800 compounds or so, about 420 (8.8%) showed an effect of 50% or more. The list shows a part of the results.

system: Plasmodium falciparum; test: Confirmatory screen in NF54 nanoGlo assay, in single point, at 2uM, 72h; type: functional, Erythrocyte; conditions: timepoint 72 hour

SMILES | % Inhibition
O=C1C2CCN(CC2)[C@H]1Cc1ccc(Cl)cc1 | 4%
COC(=O)COc1ccc(C#N)c(Cl)c1 | -5%
CC(=O)N(C1CCN(Cc2ccccc2)CC1)C1(C(=O)Nc2ccc3[nH]ccc3c2)CCN(C)CC1 | 35%
COc1ccc(CCN2C(=O)NC(=O)[C@@]3(Cc4c(ccc5ccccc45)N(C)C3)C2=O)cc1OC | -2%
O=C1NC(=O)C2(Cc3cccc(F)c3N3CCC(c4ccccc4)CC32)C(=O)N1c1ccccc1 (configuration not stated) | -4%
Cc1ccc(Cl)c(NC(=O)N2CCC[C@H](c3n[nH]c(=O)o3)C2)c1 | 1%
CC(C)N1CCN(c2nc3nc[nH]c(=O)c3s2)CC1 | 4%
CN(C)c1ccccc1NS(=O)(=O)c1c(Br)cc2[nH]c(=O)oc2c1Cl | -7%
c1cc(-n2cnnn2)ccc1N[C@H]1CN2CCC1CC2 | -14%
O=C(N1CCN(C(c2ccccc2)c2ccccc2)CC1)C(O)(c1ccccc1)c1ccccc1 | -4%
c1cc(N2CC[C@@]3(CCCNC3)C2)c2sccc2n1 | 99%
COc1ccc(N2C[C@H]2c2ccncc2)cc1 | -3%
O=C1CCN(C(=O)c2ccc(Cl)c(Cl)c2)CC1 | -2%
CN(C)C(=O)CCCn1ccc(NC(=O)C2C(C)(C)C2(C)C)n1 | -18%
O=C(Cc1noc2ccccc12)N1CC2CCCC(C1)N2 | 10%
CCCC(=O)N(C(=O)CCC)c1ccc2[nH]c(=O)oc2c1 | -8%

SMILES | % Inhibition
Cc1nc(Cn2nc(C(C)(C)C)oc2=O)oc1C | 0%
CC1CN2CCCC2CN1C(=O)c1cc(C2CC2)on1 (configuration not stated) | -17%
CN1CC2CN(Cc3ccccc3)CC(C1)C2=O | -15%
O=C(NC1CCCCC1)N1C[C@@H]2C[C@H](C1)c1c(-c3ccccc3F)ccc(=O)n1C2 | -4%
CN1CCC2CCN(C(=O)c3cc(C4CC4)on3)C2C1 (configuration not stated) | 2%
CC(C)(C)CC(C)(C)NCc1cccnc1 | -7%
Cc1cc(C(=O)NC2CC(C)n3ccnc32)nn1C(C)C (configuration not stated) | 58%
CNCCc1cc(OC)c(OC)c2c1ccc1cc(OC)c(OC)cc12 | 8%
CC1CCCCC1N1CCN(C(=O)COc2ccc(Br)cc2)CC1 (configuration not stated) | 3%
Cc1cc(C(F)(F)F)c2c(C(N)=O)cn(C(C)(C)C)c2n1 | 2%
COc1ccc(-c2cc([C@H]3CN4CC[C@H]3C[C@@H]4CNC(=O)C3CCCCC3)n(C)n2)cc1OC | -9%
Cc1cc(=O)c(OCC(=O)N2CCN([C@@H](c3ccccc3)c3ccc(Cl)cc3)CC2)c[nH]1 | 63%
CC(CCc1ccccc1)N1C(=O)NC(=O)C2(Cc3c(ccc4ccccc34)N(C)C2)C1=O (configuration not stated) | -8%
CCN1C[C@]2(COC)CC[C@H](OC)[C@@]34C5C[C@@H]6[C@@H](OC)C[C@@](O)(C5[C@H]6OC(=O)c5ccccc5)[C@@H](CC23)C14 (some centres not stated) | 1%
COc1cnc(C(F)(F)F)nc1N1CCNCC1 | -2%
Cc1ccccc1[C@H](C)NC1=NCCO1 | 5%
